Laboratory results: PubChem BioAssay (Tox21)
Where “and” joins values, the source holds several entries; their conditions need not be identical. Equal entries are not always repeated. The shares of active, inactive and inconclusive entries below differ from those in the screen. For some of these results: Potencies of inconclusive entries are doubtful fits and often do not repeat. More than one record can exist for a structure, and the calls need not agree. Calls of active or inactive are those of the source. Unless noted, calls follow the shape of the dose curve; as a rule, active = well fitted curve in the direction sought with a large enough effect in the repeat runs; inconclusive = weak or mixed curves; inactive = no such curve, though single readings can be large; an effect the other way counts as inactive or inconclusive.

How the values were obtained:
[1] = qHTS RealTime-Glo MT Cell Viability Assay in HEK293 cells - 8 hour (AID 1224887); also: nearly all actives have a fitted effect of over 50% in size; also: potency is read from the fitted curve at half-maximal effect
Procedure, shortened: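 Measured as luminescence from the same continuously cultured HEK293 wells at successive time points (0, 8, 16, 24, 32, 40 h) after compound addition. Reagent present from seeding; dosing at 5 h; incubation 37 C.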

[2] = qHTS RealTime-Glo MT Cell Viability Assay in HEK293 cells - 24 hour (AID 1224886); also: nearly all actives have a fitted effect of over 50% in size; also: potency is read from the fitted curve at half-maximal effect
Procedure, shortened: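 Reads taken at 0, 8, 16, 24, 32 and 40 h from the same wells. HEK293 cells (600/well) carried RealTime-Glo reagents from seeding, with compound added after a 5 h settle at 37 C.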

[3] = qHTS assay to identify small molecule antagonists of the sonic hedgehog signaling (Shh) pathway (AID 1259369; calls by dose curve; also: nearly all actives have a fitted effect of over 45% in size; also: potency is read from the fitted curve at half-maximal effect)
Procedure, shortened: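 Gli1 transcriptional reporter (firefly Luc) in NIH/3T3 background, conditioned-medium activated. 24hr exposure, luminescence endpoint.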

[4] = molecular target: Estrogen receptor beta (Homo sapiens) (UniProt Q92731); test: qHTS assay to identify small molecule antagonists of the estrogen receptor beta (ER-beta) signaling pathway (AID 1259378; active = well fitted inhibition curve with a large enough effect in the signal ratio in the repeat runs, not every such curve was filed as active; inconclusive = weak or mixed curves, or effect the other way; inactive = no such curve, though single readings can be large or run the other way; the % refers to the signal ratio; also: potency is read from the fitted curve at half-maximal effect; as to activity, negative = inhibition: % is scaled to controls: 0 for no effect and ±100 for the full control effect); settings: ER-beta-UAS-bla HEK293T, beta-lactamase FRET ratio, 16 h; activity, negative = inhibition: at 92.4 µM (top of the series) unless noted
Procedure, shortened: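 ER-beta-UAS-bla HEK293T cells in 2% charcoal-stripped FBS medium treated with compound plus 1nM final 17-beta-estradiol for 16 hr at 37C. Beta-lactamase reporter read by FRET substrate fluorescence after 2 hours at room temperature.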

[5] = molecular target: Estrogen receptor beta (Homo sapiens) (UniProt Q92731); test: qHTS assay to identify small molecule agonists of the estrogen receptor beta (ER-beta) signaling pathway (AID 1259377; active = well fitted activation curve with a large enough effect in the signal ratio in the repeat runs, not every such curve was filed as active; inconclusive = weak or mixed curves, or effect the other way; the % refers to the signal ratio; also: potency is read from the fitted curve at half-maximal effect; as to activation: % is scaled to controls: 0 for no effect and ±100 for the full control effect); settings: ER-beta-UAS-bla HEK293T, beta-lactamase FRET ratio, 16 h; activation: at 92.4 µM (top of the series) unless noted
Procedure, shortened: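 Ratiometric beta-lactamase FRET read-out came after 2 h substrate loading at room temperature. It followed 16 h compound treatment at 37C of GripTite HEK293T cells carrying a UAS-bla reporter, plated in 2% charcoal-stripped FBS medium.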

[6] = A CellTox Green Cytotoxicity Assay to monitor cytotoxicity in HEK293 cells - 16 hour (AID 1224888); also: potency is read from the fitted curve at half-maximal effect; nearly all actives have a fitted effect of over 35% in size
Procedure, shortened: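 Homogeneous no-lysis format: HEK293 cell suspension mixed with CellTox Green reagent, seeded, incubated 5 h at 37 C/5% CO2, then dosed by pintool with compound in DMSO.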

[7] = qHTS assay to identify small molecule agonists of the sonic hedgehog signaling (Shh) pathway - cell viability counter screen (AID 1259366); also: potency is read from the fitted curve at half-maximal effect; nearly all actives have a fitted effect of over 50% in size
Procedure, shortened: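 Cytotoxicity counter screen: CellTiter-Fluor reagent added after 23 h compound exposure, then 1 h at 37C and fluorescence read. Cells were 3T3 Gli1-Luc, seeded 2,000 per well and dosed 4 h post-plating.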

[8] = qHTS assay to identify small molecule antagonists of the sonic hedgehog signaling (Shh) pathway - cell viability counter screen (AID 1259367); also: nearly all actives have a fitted effect of over 55% in size; also: potency is read from the fitted curve at half-maximal effect
Procedure, shortened: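 Fluorescence read-out (CellTiter-Fluor, 1 hr at 37C) taken after 23 hr compound treatment of 3T3 Gli1-Luc cells stimulated with conditioned medium. Cells were seeded at 2,000 per well and pre-incubated 4 hr.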

[9] = molecular target: Estrogen receptor (Homo sapiens) (UniProt P03372); test: qHTS assay to identify small molecule antagonists of the estrogen receptor alpha (ER-alpha) signaling pathway using the BG1 cell line in the presence of 0.1 nM 17-beta-estradiol (AID 1259244); also: potency is read from the fitted curve at half-maximal effect; nearly all actives have a fitted effect of over 50% in size
Procedure, shortened: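 Seeding of stripped-serum-adapted VM7Luc4E2 cells, 24 h attachment, compound transfer, then 0.1 nM final 17beta-estradiol; after 22 h incubation, ONE-Glo reagent and luminescence reading.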

[10] = qHTS assay to identify small molecule HDAC inhibitors - cell viability counter screen (AID 1259365)
Procedure, shortened: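 CellTiter-Glo luminescence (30 min, room temperature) reported viability after a 2 h compound exposure at 37 C. Cells: wild-type HCT-116, 1,500 per well, seeded the night before.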

[11] = qHTS assay to identify small molecule agonists of the androgen receptor (AR) signaling pathway in the presence of an antagonist - cell viability counter screen (AID 1259379);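 also: MDA-kb2 human breast cancer cells carrying an MMTV luciferase reporter; % is scaled to controls: 0 for no effect and ±100 for the full control effect; nearly all actives have a fitted effect of over 25% in size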
Procedure, shortened: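 Counter screen for cell viability run in parallel with the AR agonist-mode luciferase assay. MDA-kb2 cells were co-treated with nilutamide (3.0uM final) and compounds, then incubated 16 hr at 37C, and CellTiter-Fluor fluorescence was measured.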

[12] = qHTS RealTime-Glo MT Cell Viability Assay in HepG2 cells - 0 hour (AID 1224889); also: nearly all actives have a fitted effect of over 50% in size; also: potency is read from the fitted curve at half-maximal effect
Procedure, shortened: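 HepG2 suspension premixed with RealTime-Glo reagents is plated at 600 cells per well and left 5 h at 37 C/5% CO2. Compounds in DMSO then go in, and bioluminescence reflecting viable cell number is recorded over 40 h.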

[13] = molecular target: Androgen receptor (Homo sapiens) (UniProt P10275); test: qHTS assay to identify small molecule antagonists of the androgen receptor (AR) signaling pathway using the MDA cell line in the presence of 0.5 nM R1881 (AID 1259243)
Procedure, shortened: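 Cells: MDA-kb2 (MMTV-luc). Stimulus: 0.5 nM R1881. Time: 16 hr, 37C, no CO2. Detection: ONE-Glo luminescence after 30 min at RT.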

[14] = qHTS assay to identify small molecule antagonists of the estrogen receptor alpha (ER-alpha) signaling pathway using the BG1 cell line in the presence of 0.1 nM 17-beta-estradiol - cell viability counter screen (AID 1259241); also: potency is read from the fitted curve at half-maximal effect; nearly all actives have a fitted effect of over 40% in size
Procedure, shortened: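 Cytotoxicity counter-screen: live-cell protease activity measured by fluorescence (30 min reagent step) in the same wells. Cells were VM7Luc4E2 with endogenous ER-alpha and ERE-driven luciferase, treated 22 hr at 37C alongside 0.1 nM 17beta-estradiol final.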

[15] = qHTS assay to identify small molecule antagonists of the androgen receptor (AR) signaling pathway using the MDA cell line in the presence of 0.5 nM R1881 - cell viability counter screen (AID 1259242); also: potency is read from the fitted curve at half-maximal effect; nearly all actives have a fitted effect of over 45% in size
Procedure, shortened: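 Human breast carcinoma MDA-kb2 cells, cultured without CO2, receive compounds alongside 0.5 nM (final) R1881 agonist. After 16 hr at 37C, viability is taken as live-cell protease signal.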

[16] = qHTS assay to identify small molecule HDAC inhibitors (AID 1259364);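 also: wild-type HCT-116 cells with endogenous class I/II HDAC activity; potency is read from the fitted curve at half-maximal effect; nearly all actives have a fitted effect of over 45% in size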
Procedure, shortened: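 After a 2 hr compound incubation (37C, 5% CO2), HCT-116 cells seeded at 1,500/well the day before received HDAC-Glo reagent; signal read as luminescence after 30 min at room temperature.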
Tags tell the direction and shape of the fitted curve or compound fluorescence and quenching.

Sequence of UniProt Q92731 (Q92731 whole entry, looked up): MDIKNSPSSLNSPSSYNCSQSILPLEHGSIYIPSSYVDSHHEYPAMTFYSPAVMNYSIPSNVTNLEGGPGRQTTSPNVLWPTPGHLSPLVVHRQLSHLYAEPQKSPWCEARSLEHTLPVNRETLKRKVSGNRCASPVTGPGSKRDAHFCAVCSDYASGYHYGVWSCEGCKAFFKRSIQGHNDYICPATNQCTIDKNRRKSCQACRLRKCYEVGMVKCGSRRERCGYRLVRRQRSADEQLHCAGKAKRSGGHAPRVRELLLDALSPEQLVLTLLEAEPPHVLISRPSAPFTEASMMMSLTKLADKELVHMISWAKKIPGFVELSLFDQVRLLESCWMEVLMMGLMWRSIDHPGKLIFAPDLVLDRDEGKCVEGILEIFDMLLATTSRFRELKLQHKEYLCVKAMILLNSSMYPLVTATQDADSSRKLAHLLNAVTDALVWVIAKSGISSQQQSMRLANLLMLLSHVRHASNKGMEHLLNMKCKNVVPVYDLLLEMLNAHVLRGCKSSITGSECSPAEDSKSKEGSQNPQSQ
Sequence of UniProt P10275 (P10275 whole entry, looked up): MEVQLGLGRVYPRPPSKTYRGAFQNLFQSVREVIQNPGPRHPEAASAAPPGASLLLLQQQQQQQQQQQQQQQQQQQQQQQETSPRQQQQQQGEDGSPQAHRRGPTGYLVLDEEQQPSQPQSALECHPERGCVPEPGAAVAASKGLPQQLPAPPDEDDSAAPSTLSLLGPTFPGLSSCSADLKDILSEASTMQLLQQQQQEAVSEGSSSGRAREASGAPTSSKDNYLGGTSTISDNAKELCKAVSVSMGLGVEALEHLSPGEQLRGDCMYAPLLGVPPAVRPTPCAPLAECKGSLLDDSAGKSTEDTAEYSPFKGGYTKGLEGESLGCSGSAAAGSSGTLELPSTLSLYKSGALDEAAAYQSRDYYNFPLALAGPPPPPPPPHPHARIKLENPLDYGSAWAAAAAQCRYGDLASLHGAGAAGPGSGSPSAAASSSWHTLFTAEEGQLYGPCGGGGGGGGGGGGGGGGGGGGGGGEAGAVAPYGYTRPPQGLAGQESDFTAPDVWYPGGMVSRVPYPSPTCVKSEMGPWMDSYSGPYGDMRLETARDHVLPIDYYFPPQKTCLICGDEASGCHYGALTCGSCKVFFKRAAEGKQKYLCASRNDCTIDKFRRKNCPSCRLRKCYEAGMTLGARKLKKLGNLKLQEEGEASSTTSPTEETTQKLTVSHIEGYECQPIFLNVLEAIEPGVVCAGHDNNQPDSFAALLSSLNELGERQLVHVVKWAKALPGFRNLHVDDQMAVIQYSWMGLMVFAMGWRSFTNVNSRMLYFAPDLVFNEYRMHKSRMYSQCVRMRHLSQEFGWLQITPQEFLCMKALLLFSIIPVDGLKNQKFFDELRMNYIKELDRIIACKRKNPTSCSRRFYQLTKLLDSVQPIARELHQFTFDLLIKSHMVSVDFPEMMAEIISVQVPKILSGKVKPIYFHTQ
Sequence of UniProt P03372 (P03372 whole entry, looked up): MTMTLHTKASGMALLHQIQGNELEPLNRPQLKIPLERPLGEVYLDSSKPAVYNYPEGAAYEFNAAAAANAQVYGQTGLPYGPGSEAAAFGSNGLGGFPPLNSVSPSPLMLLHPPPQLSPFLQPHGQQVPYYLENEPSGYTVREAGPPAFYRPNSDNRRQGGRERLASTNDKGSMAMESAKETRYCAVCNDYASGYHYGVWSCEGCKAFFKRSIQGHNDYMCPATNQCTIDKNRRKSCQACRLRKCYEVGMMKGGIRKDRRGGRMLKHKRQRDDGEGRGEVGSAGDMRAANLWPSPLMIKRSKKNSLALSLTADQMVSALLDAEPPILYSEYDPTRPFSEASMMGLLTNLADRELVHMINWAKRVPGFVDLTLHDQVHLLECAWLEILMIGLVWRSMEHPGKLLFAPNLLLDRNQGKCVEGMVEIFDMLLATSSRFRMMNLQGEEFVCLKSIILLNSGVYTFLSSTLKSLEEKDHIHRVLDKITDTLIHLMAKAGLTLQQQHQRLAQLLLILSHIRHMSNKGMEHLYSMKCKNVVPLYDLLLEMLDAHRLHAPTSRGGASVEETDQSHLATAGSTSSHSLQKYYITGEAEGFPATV

## C=CC(N)=O
[1]
  Potency: inactive

## N#CC(Cl)Cl
[2]
  Potency: inconclusive: 21.3 µM
[3]
  Potency: inconclusive: 33.5 µM [inhibitor]
[4]
  activity, negative = inhibition: inconclusive: -31.5%

## O=C1C(I)=CC(=C(c2cc(I)c(O)c(I)c2)c2ccccc2C(=O)O)C=C1I
[2]
  Potency: inactive
[3]
  Potency: inconclusive: 0.75 µM [inhibitor, full curve, poor fit]
[5]
  Potency: inconclusive: 26.6 µM
[4]
  Potency: inconclusive: 21.1 µM [rising, partial curve]

## O=[N+]([O-])c1ccc(O)c([N+](=O)[O-])c1
[1]
  Potency: inconclusive: 21.9 µM [rising, partial curve]
[6]
  Potency: inconclusive: 55.2 µM [activator, single point]
[7]
  Potency: inconclusive: 24.4 µM [cytotoxic, partial curve] and inconclusive: 30.6 µM [cytotoxic, partial curve]
[8]
  Potency: inconclusive: 27.3 µM [cytotoxic, partial curve]
[5]
  Potency: inconclusive: 15.4 µM [fluorescent, partial curve]
[4]
  activity, negative = inhibition: inconclusive: 8.69%

## O=[N+]([O-])c1cc(C(F)(F)F)c(Cl)c([N+](=O)[O-])c1Nc1ncc(C(F)(F)F)cc1Cl
[1]
  Potency: active: 5.49 µM
[6]
  Potency: active: 49 µM
[9]
  Potency: active: 24.3 µM
[10]
  Potency: active: 54.5 µM
[3]
  Potency: active: 3.86 µM
[5]
  Potency: inconclusive: 27.3 µM [cytotoxic, full curve]

## CC(C)NC(=O)N1CC(=O)N(c2cc(Cl)cc(Cl)c2)C1=O
[2]
  Potency: inconclusive: 49 µM [cytotoxic, partial curve, poor fit]
[3]
  Potency: active: 10.9 µM and inconclusive: 77 µM [inhibitor, partial curve, poor fit]
[11]
  Potency: inactive

## CS(=O)(=O)c1ccc(C(=O)C2C(=O)CCCC2=O)c([N+](=O)[O-])c1
[1]
  Potency: active: 21.4 µM
[6]
  Potency: active: 44.4 µM
[8]
  Potency: inconclusive: 62.2 µM [cytotoxic, partial curve, poor fit]
[3]
  Potency: inconclusive: 2.48 µM [inhibitor, single point]
[5]
  Potency: inconclusive: 62.2 µM [fluorescent, single point]

## CC1(C)C(C=C(Cl)Cl)C1C(=O)OC(C#N)c1cccc(Oc2ccccc2)c1 (centres undefined)
[1]
  Potency: inconclusive: 61.6 µM [cytotoxic, partial curve, poor fit]
[12]
  Potency: inactive
[8]
  Potency: inactive
[3]
  Potency: inactive
[5]
  Potency: inactive

## c1ccc(C2CC2)c(OCC2=NCCN2)c1
[1]
  Potency: inactive
[13]
  Potency: inconclusive: 7.5 µM [inhibitor]

## CCCN(CCC)c1c([N+](=O)[O-])cc(C(F)(F)F)cc1[N+](=O)[O-]
[1]
  Potency: inconclusive: 38.8 µM [cytotoxic, partial curve] and inconclusive: 34.7 µM [cytotoxic, partial curve, poor fit]
[11]
  Potency: inactive

## CCCCCCCC[N+](C)(CCCCCCCC)CCCCCCCC
[6]
  Potency: active: 24.5 µM and active: 24.6 µM and active: 15.5 µM
[12]
  Potency: inconclusive: 38.8 µM [cytotoxic, partial curve] and inconclusive: 38.9 µM [cytotoxic, partial curve]
[14]
  Potency: active: 24.3 µM and active: 27.3 µM and active: 48.6 µM
[10]
  Potency: active: 61.1 µM
[3]
  Potency: active: 193 nM and active: 48.6 nM and active: 306 nM

## C=CC(=O)OCC(COC(=O)C=C)(COC(=O)C=C)COC(=O)C=C
[1]
  Potency: inconclusive: 3.09 µM [cytotoxic, full curve]
[15]
  Potency: active: 13.7 µM
[10]
  Potency: inconclusive: 12.2 µM [rising, full curve]
[8]
  Potency: active: 7.7 µM

## Brc1ccc(Oc2ccc(Br)cc2Br)c(Br)c1
[1]
  Potency: inconclusive: 49 µM [cytotoxic, partial curve, poor fit]
[16]
  Potency: inconclusive: 54.5 µM [inhibitor, partial curve]
[4]
  activity, negative = inhibition: inconclusive: -35.2%
